# Whole data set: some 33,000 sequences, median “E-score (-0.5 to 0.5)” near -0.016, cut for the highest 2% near 0.32. Some of the results follow.
# Biological target: T1, Stp1 (UniProt B3LFK1)
# T1 sequence: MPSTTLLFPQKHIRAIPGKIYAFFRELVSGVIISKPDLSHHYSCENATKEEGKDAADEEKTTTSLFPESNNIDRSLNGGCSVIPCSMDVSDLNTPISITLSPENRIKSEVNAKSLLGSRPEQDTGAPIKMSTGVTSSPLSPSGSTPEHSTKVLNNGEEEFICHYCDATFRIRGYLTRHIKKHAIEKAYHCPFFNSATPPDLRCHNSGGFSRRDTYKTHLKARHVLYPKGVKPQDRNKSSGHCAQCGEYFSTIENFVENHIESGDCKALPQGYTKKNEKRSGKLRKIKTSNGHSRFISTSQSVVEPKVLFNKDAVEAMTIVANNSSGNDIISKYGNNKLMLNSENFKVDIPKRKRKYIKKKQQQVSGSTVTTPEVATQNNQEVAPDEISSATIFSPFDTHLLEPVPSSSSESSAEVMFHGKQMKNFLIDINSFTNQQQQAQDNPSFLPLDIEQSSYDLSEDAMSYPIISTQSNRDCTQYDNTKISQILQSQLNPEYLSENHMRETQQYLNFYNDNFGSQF
# Assay: PBM E-score (8-mer binding enrichment) (E-score (-0.5 to 0.5)); higher = stronger / more preferred TF binding; most listed sequences are background and not binding sites
# Conditions: protein concentration: 200 nM; construct: GST-full length
# Protocol: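 Universal 'all 10-mer' protein binding microarrays (Agilent AMADID 015681) probed with GST-tagged S. cerevisiae TFs (full-length or DBD) made by in vitro transcription/translation (PURExpress), about 100-200 nM. Bound TF was detected with fluorescent anti-GST. Each ungapped 8-mer (which stands for itself and its reverse complement) is scored by the PBM enrichment score (E-score), a modified Wilcoxon-Mann-Whitney statistic from -0.5 to +0.5, computed with the Universal PBM Analysis Suite. Scale: above 0.35 generally sequence-specific binding.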
row,Sequence,PBM E-score
1,CACTTCTC,-0.174
2,AGGCGGAT,-0.0693
3,GCGGTGGA,-0.0823
4,CCTTACTC,0.0999
5,CATAGCAA,0.0603
6,GGTGAGCA,-0.285
7,GCATGTAC,-0.00931
8,CTCGTAAG,0.199
9,CGAAGTAG,-0.068
10,ACGCAGGC,-0.0284
11,TAAGGTGA,-0.113
12,AAGTCCTG,-0.186
13,AAAAAGGA,0.00823
14,CCTGAAGC,-0.308
15,TGTTAAAA,0.12
16,ATATTAAA,0.302
17,CTTTACGA,0.0486
18,CGGTACCA,-0.182
19,ATTAATAC,0.17
20,GAGGCCTC,-0.0558
21,ACAACGAC,0.011
22,CTCAGGTA,-0.268
23,ACGGCTCC,0.449
24,ATGTACTG,-0.104
25,ACGTTAGC,0.159

row,Sequence,PBM E-score
1,CAGTAAAC,0.077
2,CCTAGGCA,-0.0124
3,CAAGACAA,0.187
4,AAAACTAT,0.0296
5,AATCGGAG,-0.0886
6,CTAGATAC,0.0423
7,ACCTGGAC,-0.303
8,AATTTATC,0.267
9,AGTAAAGA,-0.0377
10,TTGTACAA,0.15
11,AGGTAAAA,0.0924
12,GCAGCTGA,0.0289
13,AATCTTTG,0.141
14,CTACAAAA,0.0378
15,GAACACCC,-0.106
16,GCGACAGA,-0.0165
17,CTAGGTCC,-0.102
18,AGCCACCG,-0.00661
19,TGCTCCCA,-0.211
20,GGGTGCCA,0.0789
21,AGCCAAGC,-0.189
22,GCTCTCAA,0.0022
23,AAGCCGCA,0.386
24,ATAGCAGA,-0.0278
25,ATGGTTTG,0.0184

row,Sequence,PBM E-score
1,GATTCCCC,-0.246
2,AACTGTTG,-0.235
3,GAAGTCGA,-0.109
4,CAAAACAG,0.012
5,GGGAACCA,-0.205
6,GAAAGGCC,0.272
7,GGGGACTA,-0.358
8,CTGGTACA,-0.0824
9,CCTTTCGA,0.17
10,GCGCTTTA,0.201
11,CGCTTCAA,0.0401
12,ACTACACG,-0.00839
13,ATCTTTTG,0.0677
14,AGTTCTTC,0.00965
15,CTGGCCTA,-0.316
16,GAGCAACA,0.0625
17,CGATCAAG,-0.0842
18,AGTTACTA,-0.0212
19,GACTAGGA,-0.12
20,AACTATCG,-0.203
21,GCGAGATA,0.0771
22,TCGGACCA,0.00747
23,CTATGACC,-0.151
24,ACGAGAGC,-0.125
25,ACTAGCTA,-0.179

row,Sequence,PBM E-score
1,AGGGCTAA,0.0399
2,CACGGCTA,0.415
3,AACGCGCT,0.0273
4,CCACTGGC,-0.0395
5,GCAAATTA,0.0644
6,CCTGCAAG,-0.173
7,CGAAGACA,-0.0318
8,AGGCACTG,0.291
9,TGACGGAA,-0.018
10,AGAGCCCT,-0.0706
11,ACTGGGAG,-0.257
12,CGGCGAGC,0.307
13,GCGATAAA,0.216
14,AATAGTAA,0.0925
15,AGCGGGGG,-0.287
16,CAGGCGAA,0.0577
17,GCTGACAC,0.0133
18,AGGGGTCA,-0.363
19,CATTCGTA,-0.0576
20,TACTCTAA,0.034
21,ACATCATG,-0.173
22,ATGGCCCG,-0.0564
23,AAGGCTCA,0.16
24,AAGTTGCC,0.168
25,CCCGTAGG,-0.209

row,Sequence,PBM E-score
1,AAAGCGTT,-0.142
2,GACAGGGA,0.0424
3,CGAGTTAG,-0.00325
4,CCTAACTA,0.133
5,CGCTCCCA,-0.109
6,CCTCCATA,0.0205
7,ATAGCCGG,0.0799
8,CTACACAA,0.0422
9,GGCACCCA,0.211
10,AACCGCCC,-0.149
11,CACAATGC,0.00061
12,CCTGCAGA,-0.117
13,GCGTCGTA,0.159
14,GCATAACC,-0.136
15,ATACCCGG,-0.0802
16,CACTGGGG,-0.231
17,CAGACAAA,0.13
18,ATGGAAAC,-0.0997
19,GTTTGTAA,0.0806
20,CCCAGATC,-0.286
21,ACATTCTG,0.0191
22,CAAGAGTC,-0.177
23,AAGGCTAA,0.124
24,GACTGCCC,-0.187
25,GATGGAGC,0.0391

row,Sequence,PBM E-score
1,ACACTTAG,0.0417
2,GCAGTGGA,-0.0787
3,GATTACGA,0.103
4,AGCGGGAC,-0.257
5,GAAAGCAC,0.064
6,ATGAATCG,0.125
7,CACGGCGA,0.474
8,CCTTCACA,-0.0862
9,ACCGACGC,0.0223
10,AACTTCTG,-0.0279
11,CCGCGTAC,0.15
12,CCAAGGGA,-0.321
13,ACACCAAG,0.00503
14,CTGACGGA,-0.146
15,AATCGAGC,0.0349
16,CGAGCTGA,-0.115
17,AGCAGCAT,-0.0583
18,AGGTGACC,-0.244
19,GGTGTTCA,0.0178
20,CCCACACC,-0.0557
21,TCCTGGAA,-0.313
22,ACTACTCC,-0.0292
23,GATGTATA,0.0575
24,AAGTTGCT,0.0114
25,CTAGCGTA,-0.336

row,Sequence,PBM E-score
1,AGACTAGC,-0.228
2,ACCTGTTA,-0.23
3,CTCACCGA,0.0639
4,GTACCTAC,-0.136
5,ACTTTTGC,0.207
6,AGGCATTG,0.24
7,GGACACTA,-0.0339
8,AGTATCGA,0.206
9,ACACCCAA,-0.136
10,CGACAGCG,-0.022
11,TACGAATA,0.0335
12,ACCCGCCG,0.214
13,GCTAAGGA,0.0235
14,ACAGGACA,-0.0257
15,CGCACTGA,-0.0386
16,GCCATTGA,0.226
17,ATTTCAGG,0.0844
18,CCAACTTA,0.132
19,GAAGCTGC,-0.188
20,CCTTTGAC,-0.0626
21,CTCTTGGC,-0.158
22,CGCGTCAC,0.138
